Test results taken from paper PMC6451091.
The list shows a part of the results. For part of these data: At the low end of the ranking the order means little. For part of these data: The protein was read in a cell extract, so binding may be indirect.

Molecular target: PU.1 (IVT) (UniProt P17947)
Test: protein-binding microarray (PBM)
Conditions: 20 mM HEPES pH 7.9, 100 mM NaCl, 1 mM DTT, 0.2 mg/mL BSA, 0.02% Triton X-100, 2% milk, 0.4 mg/mL salmon testes DNA; 1 h; temperature not stated; high values mean tight binding; double strand, one strand shown; sequences stand for … in GCCTAGCAC…GTGCTAGGTCTTGATTCGCTTGACGCTGCTG

Sequence | binding signal [z-score]
GATCCCCAAACGGAAAGAAA | -0.0793
TCAGCCCTCGGGTGGATAGT | -0.094
TACATTTTCTTATGCTTCCC | 0.394
GTTTTTTGGCTGCTCCAGAC | -0.405
AGTCACCAGGGCTGGGAAGC | -0.123
CACAACCCTCAGCAAATCTT | -0.717
GAAAGGACTGCGTGAAACTA | -0.863
TGCCAGGCACACAGCAGGTC | -0.847
TGGAGCCAAGATTTCATTGG | -0.494
GGTGTGGCTGCGTGAAACCT | -0.532
GGCCAGTCACTGTGTAAGAT | -0.482
AAAAGGACTGCGTGAAAGTA | 0.0725
CAGGCGAGGTGTTGGAGGAA | 4.86
AACTAAATTAAACCACACCA | 0.114
ATGCTATGGATTCTTTAACC | -0.284
GAAAGACTCTGAGTCTAAGC | -0.601
GAGGCTGGCTGTGGCTCAAC | -0.64
TGGAATTGTTTTTAATCCAT | -0.657
ACCTCTGCTGCCTGAAACTG | -0.299
AGGTAACCATACTGTCTTGA | -0.278

Sequence | binding signal [z-score]
CAGTTTTTGACATCTTATCA | -0.0371
TCCCAGGCAATCTACTCTTT | -0.646
GACATTTTAGGAAAAGAGAA | 5.87
AGACATATTCACCACAGACT | 0.159
CTCCAAAGAGCTCTGGGGGA | -0.701
GTGGGTTTGTCATTTGTATC | -0.356
GAGAGGAGAAAAGGAACGTG | 0.502
GCACTATAGGGTGACTATAG | -0.461
CAACCAACTCTACCTGAGAA | 0.225
AAATGAACTTCAAAAAAGGA | 0.169
ACAATATTGTTTCTTTGAAA | -0.31
CCTTTGTGGGAAGTCCCAGG | 1.49
GCGGCGGGGCTGTCAGGCTC | -0.631
ACTTCCCGTCCCCAGACTGG | 3.7
CGTGTCACCCAGTACGCGGC | -0.566
TTCGTCATTAGAACTCAGCC | 0.143
TTATATGAAATGTCCAGGAG | -0.486
TTCAGGGCTGCGTGAAAGTT | -0.0108
CCTCGAACTCACCGCCGCCC | -0.99
TGCAGGGCTCCCTCACAGTA | -0.415

Molecular target: PU.1 (endogenous, THP-1 nuclear extract) (UniProt P17947)
Test: nuclear extract protein-binding microarray (nextPBM)
Conditions: 20 mM HEPES pH 7.9, 100 mM NaCl, 1 mM DTT, 0.2 mg/mL BSA, 0.02% Triton X-100, 2% milk, 0.4 mg/mL salmon testes DNA; 1 h; temperature not stated; high values mean tight binding; double strand, one strand shown; sequences stand for … in GCCTAGCAC…GTGCTAGGTCTTGATTCGCTTGACGCTGCTG

Sequence | binding signal [z-score]
GATCCCCAAACGGAAAGAAA | 0.246
TCAGCCCTCGGGTGGATAGT | 0.00504
TACATTTTCTTATGCTTCCC | 0.118
GTTTTTTGGCTGCTCCAGAC | -0.708
AGTCACCAGGGCTGGGAAGC | 0.273
CACAACCCTCAGCAAATCTT | -0.42
GAAAGGACTGCGTGAAACTA | -0.39
TGCCAGGCACACAGCAGGTC | -0.291
TGGAGCCAAGATTTCATTGG | -0.2
GGTGTGGCTGCGTGAAACCT | -0.391
GGCCAGTCACTGTGTAAGAT | -0.542
AAAAGGACTGCGTGAAAGTA | -0.528
CAGGCGAGGTGTTGGAGGAA | 5.29
AACTAAATTAAACCACACCA | -0.0179
ATGCTATGGATTCTTTAACC | -0.484
GAAAGACTCTGAGTCTAAGC | -0.658
GAGGCTGGCTGTGGCTCAAC | -0.393
TGGAATTGTTTTTAATCCAT | -0.233
ACCTCTGCTGCCTGAAACTG | -0.403
AGGTAACCATACTGTCTTGA | -0.154

Sequence | binding signal [z-score]
CAGTTTTTGACATCTTATCA | -0.398
TCCCAGGCAATCTACTCTTT | -0.0563
GACATTTTAGGAAAAGAGAA | 6.34
AGACATATTCACCACAGACT | -0.405
CTCCAAAGAGCTCTGGGGGA | -0.526
GTGGGTTTGTCATTTGTATC | -0.613
GAGAGGAGAAAAGGAACGTG | 0.262
GCACTATAGGGTGACTATAG | -0.171
CAACCAACTCTACCTGAGAA | 0.628
AAATGAACTTCAAAAAAGGA | -0.676
ACAATATTGTTTCTTTGAAA | -0.613
CCTTTGTGGGAAGTCCCAGG | 1.62
GCGGCGGGGCTGTCAGGCTC | 0.0579
ACTTCCCGTCCCCAGACTGG | 3.78
CGTGTCACCCAGTACGCGGC | -0.137
TTCGTCATTAGAACTCAGCC | 0.431
TTATATGAAATGTCCAGGAG | -0.0748
TTCAGGGCTGCGTGAAAGTT | -0.013
CCTCGAACTCACCGCCGCCC | -0.4
TGCAGGGCTCCCTCACAGTA | -0.113

Molecular target: T1, FLI1 (endogenous, THP-1 nuclear extract) (UniProt Q01543)
T1 sequence: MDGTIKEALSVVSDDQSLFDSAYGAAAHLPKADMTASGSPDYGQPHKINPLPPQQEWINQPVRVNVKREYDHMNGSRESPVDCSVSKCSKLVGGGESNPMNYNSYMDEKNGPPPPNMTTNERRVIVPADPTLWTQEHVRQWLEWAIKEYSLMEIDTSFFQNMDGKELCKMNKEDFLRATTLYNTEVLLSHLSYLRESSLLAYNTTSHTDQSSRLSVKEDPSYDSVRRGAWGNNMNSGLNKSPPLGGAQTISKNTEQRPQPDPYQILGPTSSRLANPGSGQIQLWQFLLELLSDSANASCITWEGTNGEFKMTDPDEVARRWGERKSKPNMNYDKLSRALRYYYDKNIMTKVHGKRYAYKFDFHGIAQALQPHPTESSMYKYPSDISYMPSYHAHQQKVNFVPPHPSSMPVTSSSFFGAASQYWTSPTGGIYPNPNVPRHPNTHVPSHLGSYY
Test: as above
Conditions: 20 mM HEPES pH 7.9, 100 mM NaCl, 1 mM DTT, 0.2 mg/mL BSA, 0.02% Triton X-100, 2% milk, 0.4 mg/mL salmon testes DNA; 1 h; temperature not stated; high values mean tight binding; double strand, one strand shown; sequences stand for … in GCCTAGCAC…GTGCTAGGTCTTGATTCGCTTGACGCTGCTG

Sequence | binding signal [z-score]
GATCCCCAAACGGAAAGAAA | 1.78
TCAGCCCTCGGGTGGATAGT | -0.745
TACATTTTCTTATGCTTCCC | 1.39
GTTTTTTGGCTGCTCCAGAC | 0.219
AGTCACCAGGGCTGGGAAGC | 0.11
CACAACCCTCAGCAAATCTT | -0.472
GAAAGGACTGCGTGAAACTA | -0.178
TGCCAGGCACACAGCAGGTC | -0.232
TGGAGCCAAGATTTCATTGG | -0.625
GGTGTGGCTGCGTGAAACCT | -0.48
GGCCAGTCACTGTGTAAGAT | -0.017
AAAAGGACTGCGTGAAAGTA | -0.559
CAGGCGAGGTGTTGGAGGAA | 3.57
AACTAAATTAAACCACACCA | 0.0688
ATGCTATGGATTCTTTAACC | -0.399
GAAAGACTCTGAGTCTAAGC | -0.511
GAGGCTGGCTGTGGCTCAAC | -0.522
TGGAATTGTTTTTAATCCAT | 0.0222
ACCTCTGCTGCCTGAAACTG | -0.105
AGGTAACCATACTGTCTTGA | -0.393

Sequence | binding signal [z-score]
CAGTTTTTGACATCTTATCA | -0.163
TCCCAGGCAATCTACTCTTT | -0.258
GACATTTTAGGAAAAGAGAA | 2.54
AGACATATTCACCACAGACT | -0.527
CTCCAAAGAGCTCTGGGGGA | -0.202
GTGGGTTTGTCATTTGTATC | 0.142
GAGAGGAGAAAAGGAACGTG | 0.0798
GCACTATAGGGTGACTATAG | -0.205
CAACCAACTCTACCTGAGAA | -0.456
AAATGAACTTCAAAAAAGGA | -0.307
ACAATATTGTTTCTTTGAAA | -0.454
CCTTTGTGGGAAGTCCCAGG | 0.948
GCGGCGGGGCTGTCAGGCTC | -0.158
ACTTCCCGTCCCCAGACTGG | 3.14
CGTGTCACCCAGTACGCGGC | -0.806
TTCGTCATTAGAACTCAGCC | -0.899
TTATATGAAATGTCCAGGAG | 0.238
TTCAGGGCTGCGTGAAAGTT | -0.42
CCTCGAACTCACCGCCGCCC | -0.469
TGCAGGGCTCCCTCACAGTA | -0.782
